Laboratory results published in ChEMBL document CHEMBL4888484, “Replenishing the malaria drug discovery pipeline: Screening and hit evaluation of the MMV Hit Generation Library 1 (HGL1) against asexual blood stage Plasmodium falciparum ,using a nano luciferase reporter read-out” (2022).
“And” between values parts separate entries of the source, which are not always exact repeats. Equal entries are not always repeated. Screen size: about 150,000 compounds; about 540 (0.36%) showed an effect of 50% or more. This is one part of the list.

System: Plasmodium falciparum
Assay: Primary screen in NF54 nanoGlo assay, in single point, at 2uM, 72h; a lower Z score goes with more inhibition
Assay type: functional, Erythrocyte
Settings: timepoint 72 hour

Structure (SMILES): CC(C)NS(=O)(=O)c1cc(C#N)ccc1N1CC[C@H](N(C)C)C1
- % Inhibition: -10%
- Z score: 1.01

Structure (SMILES): Cc1ccc(NC(=O)N2CCCCCCN(C)C(=O)CC2)cc1C
- % Inhibition: -4%
- Z score: 0.7

Structure (SMILES): c1ccc([C@@H](NCc2cnc3n2CCCC3)c2nnc[nH]2)cc1
- % Inhibition: -1%
- Z score: 0.13

Structure (SMILES): Cc1ccc(C(=O)NC2CCC3(CC2)C[C@@H]3N)c(C(C)C)n1 (some centres undefined)
- % Inhibition: 4%
- Z score: -0.62

Structure (SMILES): Cc1ccnc2nc(C(=O)N(C)c3ccc(Cl)cn3)nn12
- % Inhibition: 24%
- Z score: -1.23

Structure (SMILES): Cc1ccc(S(=O)(=O)NC(=O)C2CC2C)cn1 (centres undefined)
- % Inhibition: -5%
- Z score: 0.68

Structure (SMILES): COc1cc2c(cc1OC)CN(C(=O)CN(C1CCCC1)C1CCCC1)CC2
- % Inhibition: 0%
- Z score: 0.07

Structure (SMILES): Cc1ccc(-c2noc(CCNC(=O)[C@@H](C)Cn3cncn3)n2)cc1
- % Inhibition: -7%
- Z score: 1.43

Structure (SMILES): Cn1nccc1[C@@H]1CN(C(=O)Nc2nsc3ccccc23)CCO1
- % Inhibition: -5%
- Z score: 0.53

Structure (SMILES): CCc1nc(C)c(C(=O)NC[C@H](C)c2nc(C)cs2)o1
- % Inhibition: -9%
- Z score: 1.35

Structure (SMILES): Cc1ccc(C2CN(C(=O)c3ccc(F)cc3)CC2CN(C)C2CCCCC2)cc1 (centres undefined)
- % Inhibition: -13%
- Z score: 2.06

Structure (SMILES): CC(C)c1ccc(CN2CCCN(c3ccc(NC(=O)c4ccccc4Cl)cn3)CC2)cc1
- % Inhibition: -5%
- Z score: 0.47

Structure (SMILES): C[C@@H](CCc1cccc(F)c1)C(=O)Nc1nc(=O)c2cnn(C)c2[nH]1
- % Inhibition: -6%
- Z score: 0.8

Structure (SMILES): CCCn1nc(C(=O)N(CC)CC(=O)Nc2ccc3c(c2)OCCO3)ccc1=O
- % Inhibition: -11%
- Z score: 1.25

Structure (SMILES): Cc1ccc(CC(=O)N2C[C@@H](N)[C@H](c3ccnn3C)C2)cc1
- % Inhibition: -2%
- Z score: 0.42

Structure (SMILES): O=C(c1ccc(F)cc1)N1CC[C@H](OCc2ccccc2)C1
- % Inhibition: -18%
- Z score: 2.05

Structure (SMILES): O=C(Nc1ncc(Cc2cc(C(F)(F)F)cc(C(F)(F)F)c2)s1)c1ccoc1
- % Inhibition: -11%
- Z score: 1.03

Structure (SMILES): CC(C)(C(=O)NCc1cccnc1-n1ccnc1)C1CCCC1
- % Inhibition: 6%
- Z score: -0.96

Structure (SMILES): CC1(C)CN([C@@H](CNc2ccc(C(=O)O)nn2)c2ccc(Cl)cc2)CCO1
- % Inhibition: -16%
- Z score: 2.33

Structure (SMILES): CCOC1CC(O)(CNC(=O)c2cc(F)ccc2C)C1 (centres undefined)
- % Inhibition: 13%
- Z score: -1.66

Structure (SMILES): COc1ccc(C2=NN(C(=O)CN3CCOCC3)[C@H](c3ccc(C)cc3C)C2)cc1
- % Inhibition: -5%
- Z score: 0.66

Structure (SMILES): Cc1oc(-c2ccno2)cc1S(=O)(=O)N1CCC[C@H]1c1nc(C(C)C)no1
- % Inhibition: -3%
- Z score: 0.48

Structure (SMILES): CC1CCCN(C(=O)CC2NC(=O)N(c3ccc(F)cc3)C2=O)C1 (centres undefined)
- % Inhibition: -9%
- Z score: 0.82

Structure (SMILES): CCOc1ccccc1OCc1ncnn1C
- % Inhibition: 4%
- Z score: -0.56

Structure (SMILES): CCn1nc(C)nc1NC(=O)CCc1ccncc1
- % Inhibition: 19%
- Z score: -2.47

Structure (SMILES): CC1CC(C)CN(C(=O)c2ccc3c(c2)ncn3C2CCCC2)C1 (centres undefined)
- % Inhibition: -17%
- Z score: 2.76

Structure (SMILES): Cc1ccc(NS(=O)(=O)c2ccc(NC(=O)CN(c3ccc(F)cc3)S(C)(=O)=O)cc2)cc1C
- % Inhibition: 4%
- Z score: -0.67

Structure (SMILES): O=C(CCc1cc2n(n1)CCN(C(=O)[C@@H]1Cc3ccccc3O1)C2)NC1CC1
- % Inhibition: -9%
- Z score: 1.15

Structure (SMILES): C[C@H](NC(=O)C(C)(C)C)c1ccccc1
- % Inhibition: 0%
- Z score: 0

Structure (SMILES): COC1(c2ccccc2)CCN(c2ccc3cc[nH]c3n2)CC1
- % Inhibition: -5%
- Z score: 1.08

Structure (SMILES): COc1nc(NCC2(N(C)C)CCCC2)ncc1F
- % Inhibition: -5%
- Z score: 1.05

Structure (SMILES): Cc1cnc(CCNC(=O)NCC(C)C)n1C(C)C
- % Inhibition: -8%
- Z score: 1.42

Structure (SMILES): CN(C[C@H]1CCCO1)C(=O)c1csnn1
- % Inhibition: 13%
- Z score: -1.53

Structure (SMILES): COc1ccc(Cc2nc(-c3ccc4nncn4c3)no2)c(Cl)c1
- % Inhibition: -9%
- Z score: 1.53

Structure (SMILES): CC(=O)c1ccc(NC(=O)N2CCC(n3cc(-c4cccnc4)nn3)CC2)cc1
- % Inhibition: 15%
- Z score: -2.05

Structure (SMILES): O=C(Nc1cccc(Br)c1)c1cc2n(n1)CCCO2
- % Inhibition: -24%
- Z score: 3.8

Structure (SMILES): CCN(C(C)=O)c1nc(CN2C(=O)N[C@](C)(c3ccc(F)cc3Br)C2=O)cs1
- % Inhibition: 35%
- Z score: -0.8

Structure (SMILES): Cc1ccc(NC(=O)NC2CC3OCCCC23)cc1OCC(F)F (centres undefined)
- % Inhibition: 6%
- Z score: -0.62

Structure (SMILES): Cc1c(NC2CCN(CCN3CCOCC3)CC2)cccc1N(C)C
- % Inhibition: -19%
- Z score: 2.17

Structure (SMILES): CNC(=O)[C@@H]1CCCN1C(=O)c1cccs1
- % Inhibition: -2%
- Z score: 0.29

Structure (SMILES): O=C(CCN1CCCC1)Nc1ccc2c(c1)OCO2
- % Inhibition (2 µM): -1% and -10%

Structure (SMILES): O=C(NCc1ccnc(OC2CCC2)c1)[C@H](O)c1ccccc1
- % Inhibition: 1%
- Z score: -0.13

Structure (SMILES): Cc1cccc(C(N)=O)c1NCc1cc(C(F)(F)F)nn1C
- % Inhibition: -6%
- Z score: 0.94

Structure (SMILES): Cc1ccccc1CCC(=O)NC1(c2ncccn2)CCOCC1
- % Inhibition: -1%
- Z score: 0.16

Structure (SMILES): CO[C@@H]1C[C@@H](CO)N(C(=O)c2[nH]ccc2C)C1
- % Inhibition: 0%
- Z score: 0.06

Structure (SMILES): CN1CCN(C(=N)NC(=O)c2ccccc2)CC1
- % Inhibition: -6%
- Z score: 0.86

Structure (SMILES): Cc1nn(C)c(C)c1CCC(=O)NCCN1Cc2ccccc2O[C@H](c2ccsc2)C1
- % Inhibition: 10%
- Z score: -1.26

Structure (SMILES): O=C(NC1C2CCc3ccccc3C21)N1CCC(C(F)(F)F)C(CO)C1 (centres undefined)
- % Inhibition: 8%
- Z score: -1.65

Structure (SMILES): Cc1ccc(-c2nc(N3C(=O)C4CCCCC4C3=O)sc2C)cc1 (centres undefined)
- % Inhibition: 9%
- Z score: -1.43

Structure (SMILES): OCc1cc2n(n1)CCN(c1nc3ccccc3o1)C2
- % Inhibition: 3%
- Z score: -0.34

Structure (SMILES): Cc1cccc(-c2noc(Cn3nnc4ccccc4c3=O)n2)c1
- % Inhibition: -6%
- Z score: 0.77

Structure (SMILES): CN(C1CCCCC1O)S(C)(=O)=O (centres undefined)
- % Inhibition: -10%
- Z score: 1.18

Structure (SMILES): CCN1CCN(C(=O)[C@@]2(CCO)CCN(c3ncccn3)C2)CC1
- % Inhibition: -8%
- Z score: 1.47

Structure (SMILES): CC(C)c1cc(C(=O)Nc2n[nH]c([C@@H]3CCCO3)n2)n(-c2ccccc2)n1
- % Inhibition: -17%
- Z score: 2.63

Structure (SMILES): Cc1noc(CNc2cc(C(=O)N3CCCCC3)ccc2Cl)n1
- % Inhibition: -3%
- Z score: 0.44

Structure (SMILES): O=C(c1nc2ccccc2s1)N1CCC(c2cccs2)CC1
- % Inhibition: -15%
- Z score: 2.19

Structure (SMILES): Cn1c2ccccc2n2cc(-c3ccc4c(c3)OCO4)nc12
- % Inhibition: -17%
- Z score: 1.52

Structure (SMILES): CC(C)C[C@H]1CCCN(CC(=O)N2CC(=O)Nc3ccccc32)C1
- % Inhibition: -1%
- Z score: 0.19

Structure (SMILES): Cc1ccc2c(c1)C(=O)N(CCC(=O)NCCOc1ccccc1)C2=O
- % Inhibition: -1%
- Z score: 0.15

Structure (SMILES): CCN(Cc1cnn(CC)c1)Cc1cccc2cnccc12
- % Inhibition: -14%
- Z score: 1.88

Structure (SMILES): CC(c1ccccc1)N1C(=O)C(CCC(=O)NCc2ccccc2)N=C1O (centres undefined)
- % Inhibition: -11%
- Z score: 2.01

Structure (SMILES): Cc1sc2ncnc(N[C@@H](C)c3cscn3)c2c1C
- % Inhibition: -5%
- Z score: 0.83

Structure (SMILES): COc1cc(OC)cc([C@@H](CC(=O)N2CCN(c3ccccc3C)CC2)c2cn(Cc3ccccc3)c3ccccc23)c1
- % Inhibition: -5%
- Z score: 0.74

Structure (SMILES): O=c1cc(C2CC2)ncn1CC1CCN(Cc2cc(F)ccc2F)CC1
- % Inhibition: 19%
- Z score: -3.07

Structure (SMILES): Cc1noc(C)c1C(C)(C)C(=O)N[C@@H](C)C(=O)N1CCS(=O)(=O)CC1
- % Inhibition: 3%
- Z score: -0.54

Structure (SMILES): CCOC(=O)[C@@H]1CCCN(C(=O)c2nnc(-c3ccc(F)cn3)o2)C1
- % Inhibition: 1%
- Z score: -0.11

Structure (SMILES): N#Cc1ccc(N2CCC[C@H](S(=O)(=O)Nc3ccccc3)C2)nn1
- % Inhibition: -16%
- Z score: 1.48

Structure (SMILES): Cc1nc(C)c(C(=O)NC[C@@H](CO)Cc2cccs2)s1
- % Inhibition: -1%
- Z score: 0.15

Structure (SMILES): O=C(Cn1cnc2ccccc21)N1CCC[C@H](Nc2ccc3c(c2)OCCO3)C1
- % Inhibition: -8%
- Z score: 0.75

Structure (SMILES): C[C@@H](CN1CCOCC1)N(C)S(=O)(=O)c1cccc2cccnc12
- % Inhibition: 3%
- Z score: -0.42

Structure (SMILES): C[C@@H]1Oc2ccc(NC(=O)c3cccs3)cc2CN(CCc2ccc(F)cc2)C1=O
- % Inhibition: 2%
- Z score: -0.23

Structure (SMILES): O=C([C@@H]1COc2ccc(Br)cc21)N(CC1CC1)c1cccnc1
- % Inhibition: 1%
- Z score: -0.08

Structure (SMILES): Cc1cc(F)ccc1NC(=O)C(=O)NCc1nc(C2CC2)no1
- % Inhibition: -3%
- Z score: 0.65

Structure (SMILES): Fc1cccc(F)c1[C@H]1CCN(Cc2ncccn2)C1
- % Inhibition: -1%
- Z score: 0.11

Structure (SMILES): O=C(Nc1ccccc1CN1CCc2ccccc21)NC1CCC(O)CC1 (centres undefined)
- % Inhibition: 35%
- Z score: -5.07

Structure (SMILES): COc1ccc(CC(=O)N2CCC(=C3CCC3)CC2)cc1OC
- % Inhibition: -11%
- Z score: 1.72

Structure (SMILES): Cc1ccc2ncc(C(=O)N(CC(F)(F)F)C3CCC3)c(=O)n2c1
- % Inhibition: 0%
- Z score: 0.06

Structure (SMILES): CCn1cc([C@H]2OCC[C@@H]2NC(=O)c2nccc3occc23)cn1
- % Inhibition: -3%
- Z score: 0.4

Structure (SMILES): COCCn1ncc(N2CC[C@H](C(=O)NCC3CCN(Cc4cccc(C)c4)CC3)C2)cc1=O
- % Inhibition: -8%
- Z score: 1.6

Structure (SMILES): CCCC[C@H]1CN(c2cccc(-c3ccccc3)c2)C(=O)CN1C(=O)CNC(N)=O
- % Inhibition: 3%
- Z score: -0.44

Structure (SMILES): C#CCNC(=O)[C@H](C)Oc1cc(Br)cc(F)c1F
- % Inhibition: 2%
- Z score: -0.25

Structure (SMILES): CC(=O)N1CCN(c2nc(C)nc3c2cnn3-c2cccc(C)c2)CC1
- % Inhibition: 1%
- Z score: -0.18

Structure (SMILES): Cc1ccc(NC(=O)N2CCN(C3=Nc4ccc(C(F)(F)F)cc4Oc4ccccc43)C[C@@H]2C)cc1
- % Inhibition: 1%
- Z score: -0.07

Structure (SMILES): Cn1c(C(F)(F)F)nn(CC(=O)Nc2cccc(Cl)c2Cl)c1=O
- % Inhibition: -10%
- Z score: 1.2

Structure (SMILES): COc1cccc(C(=O)N2CCc3ncncc3C2)c1OC
- % Inhibition: -9%
- Z score: 1.65
